The results in this text go back to paper PMC12181400, “Leveraging viral genome sequences and machine learning models for identification of potentially selective antiviral agents” (Communications Chemistry, 2025).

Like-named read-outs stand apart in the source and are kept apart here.

For this test, the target named is SARS-CoV-2 RNA-dependent RNA polymerase (RdRp) (Severe acute respiratory syndrome coronavirus 2, UniProt P0DTD1). Put plainly: biochemical.
Where [1] appears, read: RdRp TR-FRET, mean ± SD of two independent experiments.

By IC50 is commonly meant the midpoint of a concentration-inhibition curve. In the case of `COc1cccc(NC(=O)c2cc(-c3ccccc3C(F)(F)F)nc3c2cnn3C)c1` [NCGC00506397], half-maximal inhibition (IC50) was put at 6.84 ± 3.21 µM. Also, the efficacy under setting [1] is reported as −61.84 ± 11.65%.

The molecule `CCCc1ccc(-c2csc(NC(=O)c3ccncc3N[S+](=O)([O-])c3ccc(C)cc3)n2)cc1` [NCGC00318955] returned an IC50 of 13 ± 2.1 µM. For the same molecule, the efficacy under setting [1] is given as −145.28 ± 8.39%.

With `COc1cccc(NC(=O)Cc2c(C)nn(-c3nc(-c4ccc(Cl)cc4)cs3)c2O)c1` [NCGC00347258], the IC50 was determined as 7.43 ± 2.38 µM. Moreover, the efficacy under setting [1] is reported as −56.66 ± 16.43%.

Consider `COc1cc2c3c(c1O)C1(C=CC(=O)C=C1)CC3N(C)CC2` (centres unmarked) [glaziovine], for which, for the setting “RdRp TR-FRET, 37 °C 3 h, 11 concentrations, mean ± SD of two independent experiments, read-out: IC50”, the IC50 stood at 10.5 ± 3.36 µM.

`CN(C)CCCn1c2c3ccccc3ccc2c2oc(=O)c3ccccc3c21` [NCGC00014952]: the IC50 came out at 3.83 ± 4.83 µM. Further, the efficacy under setting [1] was −121.90 ± 50.78%.

Turning to `Cc1cc(OCCCc2c(C(F)(F)F)n(CC(=O)NCc3ccc(C(=O)O)cc3)c3c(-c4c(C)nn(C)c4C)c(Cl)ccc23)cc(C)c1Cl` [NCGC00378383], the IC50 worked out at 5.51 ± 1.33 µM. Also, under setting [1], the efficacy is on record as −66.44 ± 6.99%.
